Experimental data reported in PubChem BioAssay AID624417 (National Center for Advancing Translational Sciences (NCATS), 2012).
The campaign covered roughly 410,000 compounds. About 6,400 (1.6%) were called active. The inconclusive results got no clear call from the source; some entries with a clear call stand among them for comparison. Calls follow the shape of the dose curve; as a rule, active = well fitted inhibition curve with a large enough effect; inconclusive = small, poorly fitted or top-dose-only effect; inactive = no such curve, though single readings can be large or run the other way. No potency is given beside an inconclusive call; the fits are too rough.

The compounds below were run against Glucagon-like peptide 1 receptor (Homo sapiens) (UniProt P43220) (assay: qHTS of GLP-1 Receptor Inverse Agonists (Inhibition Mode)). Details: HEK293 GLP-1R CRE-luciferase, luminescence, 24 h, GLP-1R form is constitutively active; activity change, negative = inhibition: at 38.3 µM (top of the series) unless noted.
Sequence of UniProt P43220 (P43220 whole entry, looked up): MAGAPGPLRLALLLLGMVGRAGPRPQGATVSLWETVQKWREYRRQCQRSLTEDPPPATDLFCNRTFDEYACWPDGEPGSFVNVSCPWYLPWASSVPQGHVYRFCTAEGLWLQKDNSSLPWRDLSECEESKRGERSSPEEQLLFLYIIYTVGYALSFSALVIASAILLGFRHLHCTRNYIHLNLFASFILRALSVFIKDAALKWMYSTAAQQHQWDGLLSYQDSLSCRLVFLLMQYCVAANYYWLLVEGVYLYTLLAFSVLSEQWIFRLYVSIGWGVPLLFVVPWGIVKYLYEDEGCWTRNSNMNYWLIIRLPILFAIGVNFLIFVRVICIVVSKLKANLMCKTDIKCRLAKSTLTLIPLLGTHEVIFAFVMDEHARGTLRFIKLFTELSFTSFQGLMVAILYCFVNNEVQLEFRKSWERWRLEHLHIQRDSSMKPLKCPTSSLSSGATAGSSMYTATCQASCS
Method in brief: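 Seeding at 200 cells/uL, 12 h culture, 24 hr compound treatment, then luciferase reagent and a luminescence read; cells are HEK293 stably expressing a constitutively active GLP-1R plus cAMP-responsive luciferase.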
% is scaled to controls: 0 for no effect and ±100 for the full control effect; potency is read from the fitted curve at half-maximal effect; tags tell the direction and shape of the fitted curve.
Also: nearly all actives have a fitted effect of over 55% in size.

Structure (SMILES)	activity change, negative = inhibition	Potency
CC(=O)Nc1ccc2nc(SCC(=O)Nc3ccc(N4CCOCC4)c(Cl)c3)sc2c1	inactive: 1.6%	
CCOc1ccc2nc(SCC(=O)c3cccs3)sc2c1		inconclusive [inhibitor, single point]
CCc1cccc(CC)c1NC(=O)CSc1nc2ccc(N3C(=O)C4C(C3=O)[C@H]3C=C[C@@H]4C3)cc2s1 (some centres not stated)		inconclusive [inhibitor, single point]
CC(C)(C)Nc1nc(NC(C)(C)C)nc(-n2ccnc2)n1		inconclusive [inhibitor, single point]
O=C(Nc1ccc(F)c(Cl)c1)Nc1csc2ccccc12		inconclusive [inhibitor, partial curve, poor fit]
COC(=O)c1ccc(NC(=O)NC(C)c2c(-n3cccc3)sc(C)c2C)cc1 (configuration not stated)		inconclusive [inhibitor, single point]
N#CC1=C(N)Oc2c(ccc3ccccc23)C1c1cccs1 (configuration not stated)		inconclusive [inhibitor, full curve, poor fit]
CCOC(=O)c1cc(CC)sc1NC(=O)Cc1ccccc1		inconclusive [inhibitor, single point]
COc1ccc(NC(=O)CN(C)CC(=O)N2CCCCCC2)cc1	inactive: 6.32%	
Cc1ccc(Cl)cc1NC(=O)C(NS(=O)(=O)c1cccs1)c1ccccc1 (configuration not stated)		inconclusive [inhibitor, partial curve]
CCOC(=O)C1C(=O)C=C(c2cccs2)CC1c1ccccc1C (configuration not stated)		inconclusive [inhibitor, single point]
CC1(C)CC(NS(=O)(=O)c2ccc(C(C)(C)C)cc2)CC(C)(C)N1		active: 3.55 µM
COc1cc(NC(=O)c2ccco2)c(C(=O)OCC(=O)c2c[nH]c3ccccc23)cc1OC		inconclusive [inhibitor, single point]
O=C(CN1C(=O)NC2(CCc3ccccc32)C1=O)Nc1cccc(F)c1 (configuration not stated)		inconclusive [inhibitor, single point]
CS(=O)(=O)N(CC(=O)NCCSCc1cccc(Cl)c1)c1ccc(F)cc1		inconclusive [inhibitor, single point]
C/C(CC1CC(C)OC1=O)=N\NC(N)=S (configuration not stated)		inconclusive [inhibitor, single point]
CCSc1ccc(-c2ccc(C)cc2)nn1	inactive: -4.61%	
O=C1Nc2cc(C(=O)N3CCN(c4ccccn4)CC3)ccc2S/C1=C\c1ccccc1	inactive: -7.57%	
O=C(NCc1cccc(C(F)(F)F)c1)c1cc(Cl)ccc1Cl		inconclusive [inhibitor, single point]
CCc1ccc(NC(=O)C2CCN(S(=O)(=O)c3c(C)noc3C)CC2)cc1		inconclusive [inhibitor, single point]
Cc1c(C#N)c2ncn(Cc3ccccn3)c(=O)c2n1-c1ccccc1	inactive: 34.7%	

Structure (SMILES)	activity change, negative = inhibition	Potency
N#C/C(=C\C1=C(N2CCOCC2)C(=C/c2cccc([N+](=O)[O-])c2)/CC1)C(=O)Nc1ccccc1F	inactive: 2.74%	
Cn1c(C(=O)OC(C(=O)NC2CCCCC2)c2cccnc2)cc2sccc21 (configuration not stated)		inconclusive [inhibitor, partial curve, poor fit]
CCc1ccccc1NC(=O)CCC(=O)Nc1nnc(C(C)C)s1	inactive: 2.6%	
O=C(Cn1cc(SCc2ccccc2F)c2ccccc21)N1CCCC1		inconclusive [inhibitor, partial curve, poor fit]
CCOc1ccc(S(=O)(=O)NCc2cccnc2)c2ccccc12	inactive: -5.91%	
CC(=O)Nc1cccc(C(=O)/C=C/c2cccs2)c1		inconclusive [inhibitor, single point]
COc1ccccc1/C=C/CN1CCN(Cc2ccc(C)o2)C(CCO)C1 (configuration not stated)		inconclusive [inhibitor, partial curve, poor fit]
Fc1ccccc1C1CC(c2ccco2)=Nc2ccccc2S1 (configuration not stated)	inactive: -4.25%	
CCc1ccc(NC(=S)N(Cc2ccc(Cl)cc2)Cc2ccc(C(=O)O)cc2)cc1		inconclusive [inhibitor, partial curve, poor fit]
Cc1ccc(NC(=O)CCCn2c(=S)[nH]c3ccsc3c2=O)cc1C	inactive: 28.9%	
COc1ccc(Cn2c(=O)cc(N)n(-c3ccccc3C)c2=O)cc1		inconclusive [inhibitor, single point]
CCCCOCCCN1CC(=O)N2[C@@H](Cc3c([nH]c4ccccc34)C2(C)C)C1=O		inconclusive [inhibitor, partial curve]
CN(C)c1ccc(C2NC(=O)c3ccccc3N2)cc1 (configuration not stated)		inconclusive [inhibitor, single point]
S=C(Nc1cccc(Cl)c1)NC1CC2CCCC(C1)N2C1CCCC1 (configuration not stated)		inconclusive [inhibitor, single point]
Cc1ccccc1NC(=O)C(Cc1ccccc1)n1cccc1 (configuration not stated)		inconclusive [inhibitor, single point]
Cc1c(Cl)c([N+](=O)[O-])nn1Cc1ccc(C(=O)Nc2ccc(Cl)cn2)o1		inconclusive [inhibitor, single point]
CCOc1ccc2nc(N3CCC(C(=O)NCCCN4CCOCC4)CC3)sc2c1		inconclusive [inhibitor, single point]
Cc1cc(Br)ccc1NC(=O)CCNS(=O)(=O)c1cccc2nonc12		inconclusive [inhibitor, partial curve, poor fit]
Cc1ccc([C@H]2N[C@]3(CCCN(Cc4ccc(F)cc4)C3=O)[C@H]3C(=O)N(Cc4ccccc4)C(=O)[C@@H]23)cc1		inconclusive [inhibitor, single point]
O=C(Cn1ncc2c3ccccc3n(Cc3ccccc3)c2c1=O)NCCCN1CCCC1		inconclusive [inhibitor, single point]
Cc1onc(-c2ccccc2Cl)c1C(=O)Oc1cc(N)n(S(=O)(=O)c2ccc(F)cc2)n1		inconclusive [inhibitor, partial curve, poor fit]
